In patent publication US20260184758A1 (CUE BIOPHARMA, published 2026):

Legend:
[1] = molecular target: T1, biotinylated NKG2A/CD94 heterodimer (UniProt P26715, in part; Q13241, in part); assay: BLI (Octet HTX), biotinylated receptor on streptavidin biosensor, bivalent TMP as analyte, kinetic analysis
T1 construct: Biotinylated heterodimer immobilized on streptavidin-coated biosensors; also called CD94/NKG2A receptor; NKG2A/CD94 complex
Source text: (§1) Streptavidin-coated biosensors were used to immobilize biotinylated NKG2A/CD94 heterodimers, or biotinylated NKG2C/CD94 heterodimers.

[2] = molecular target: T2, biotinylated NKG2C/CD94 heterodimer (UniProt P26717, in part; Q13241, in part); assay: as above
T2 construct: Biotinylated heterodimer immobilized on streptavidin-coated biosensors; also called CD94/NKG2C receptor
Source text: as §1

[3] = molecular target: T1, biotinylated NKG2A/CD94 heterodimer; assay: BLI (Octet HTX), biotinylated receptor on streptavidin biosensor, bivalent TMP as analyte, steady state Kd (avidity)
Source text: as §1

[4] = molecular target: T2, biotinylated NKG2C/CD94 heterodimer; assay: as above
Source text: as §1

[5] = molecular target: T1, biotinylated NKG2A/CD94 heterodimer; assay: BLI (Octet HTX), biotinylated receptor on streptavidin biosensor, bivalent TMP as analyte, kinetic Kd (avidity)
Source text: as §1

[6] = molecular target: T2, biotinylated NKG2C/CD94 heterodimer; assay: as above
Source text: as §1

B1: construct 4517 (single-chain TMP: NKG2 peptide VMAPRTLFL, β2M polypeptide, HLA-E heavy chain polypeptide, Ig Fc polypeptide, 2 copies of a variant IL-2) (peptide-MHC)
chain: VMAPRTLFLGCGGSGGGGSGGGGS[letters of about 100 residues omitted]GGGGSGGGGSGGGGSGSHSLKYFHTSVSRPGRGEPRFISVGYVDDTQFVRFDNDAASPRMVPRAPWMEQEGSEYWDRETRSARDTAQIFRVNLRTLRGCYNQSEAGSHTLQWMHGCELGPDRRFLRGYEQFAYDGKDYLTLNEDLRSWTAVDTAAQISEQKSNDASEAEHQRAYLEDTCVEWLHKYLEKGKETLLHLEPPKTHVTHHPISDHEATLRCWALGFYPAEITLTWQQDGEGHTQDTELVETRPCGDGTFQKWAAVVVPSGEEQRYTCHVQHEGLPEPVTLRWKAAAGG[letters of human IgG1 Fc with changes omitted]GGGGSGGGGSGGGGS[letters of about 150 residues omitted]GGGGSGGGGSGGGGSGGGGS[letters of about 150 residues omitted]
koff [1]: 0.012 s⁻¹
kon [1]: 1.2e+06 M⁻¹ s⁻¹
koff [2]: 0.014 s⁻¹
kon [2]: 1.6e+06 M⁻¹ s⁻¹
Kd [3]: 10 nM
Kd [4]: 5.8 nM
Kd [5]: 10 nM
Kd [6]: 8.5 nM
